The whole screen tested about 39,000 compounds, of which about 220 (0.56%) showed activity. The list shows a part of the results.
The compounds below were run on Escherichia coli K-12 BW25113 (assay: relative growth (OD600 normalised to plate interquartile mean) (fraction); higher = less growth inhibition, active = 0.2 or less). Conditions: 50 µM; LB; incubation time: overnight (16-24 h).
In the case of CC(=O)NCCc1cnc[nH]1, the relative growth is reported as inactive: 0.989. For COc1ccc(S(=O)(=O)Nc2ccc3c(c2)C(=O)N([C@@H](C)CO)C[C@@H](C)[C@H](CN(C)Cc2ccc4c(c2)OCO4)OCCCC[C@H](C)O3)cc1, the relative growth was inactive: 1.01. With COc1ccccc1C#Cc1cnc2c(c1)C(=O)N([C@@H](C)CO)C[C@@H](C)[C@H](CN(C)C(=O)CN(C)C)O2 the relative growth was inactive: 1.01. With C[C@H]1CN([C@@H](C)CO)C(=O)c2cccc(NC(=O)Nc3ccc4c(c3)OCO4)c2O[C@@H]1CN(C)Cc1ccc(C(=O)Nc2ccccc2N)cc1 the relative growth was inactive: 1.03. For C[C@@H]1CCCCO[C@H](CN(C)Cc2ccc(Cl)c(Cl)c2)[C@H](C)CN([C@@H](C)CO)C(=O)c2cc(NS(=O)(=O)c3ccc(Cl)cc3)ccc2O1, the relative growth was inactive: 1.03. In the case of C[C@H]1CN([C@@H](C)CO)C(=O)Cc2cc(NC(=O)Nc3ccc(F)cc3)ccc2O[C@@H]1CN(C)C(=O)Nc1cccc2ccccc12, the relative growth is reported as inactive: 0.989. For C[C@@H]1CN([C@H](C)CO)C(=O)c2cccc(NC(=O)c3cnccn3)c2O[C@@H]1CN(C)C(=O)NC1CCCCC1, the relative growth was inactive: 0.986. With COCCNC(=O)C[C@H]1C[C@@H]2c3cc(NS(C)(=O)=O)ccc3O[C@@H]2[C@H](CO)O1 the relative growth was inactive: 1.01. With C[C@H]1CN([C@@H](C)CO)C(=O)Cc2cc(NC(=O)Cc3ccccc3)ccc2O[C@H]1CN(C)Cc1ccc(Cl)c(Cl)c1 the relative growth was inactive: 1.01. COc1nc(N2CCOCC2)nc(N)c1[N+](=O)[O-] was tested, and the relative growth was inactive: 0.997. In the case of c1ccc(CN(CC2=NCCN2)c2ccccc2)cc1, the relative growth is reported as inactive: 1.04. Cc1cc(C(=O)NN)nn1C was tested, and the relative growth was inactive: 0.993. In the case of Cc1ccc(S(=O)(=O)Nc2ccc3c(c2)C(=O)N([C@@H](C)CO)C[C@H](C)[C@H](CN(C)C(=O)Nc2cccc4ccccc24)OCCCC[C@@H](C)O3)cc1, the relative growth is reported as inactive: 1.04. Cc1noc(C)c1S(=O)(=O)Nc1ccc2c(c1)CC(=O)N([C@@H](C)CO)C[C@@H](C)[C@@H](CN(C)Cc1ccncc1)O2 was tested, and the relative growth was inactive: 1.01. In the case of C[C@@H]1CN([C@@H](C)CO)C(=O)c2cc(NC(=O)C3CCCCC3)ccc2O[C@@H](C)CCCCO[C@H]1CN(C)C(=O)c1ccncc1, the relative growth is reported as inactive: 0.985. C[C@H](CO)N1C[C@H](C)[C@H](CN(C)C(=O)c2ccccc2)OCCCC[C@H](C)Oc2ccc(NS(=O)(=O)c3ccc(Cl)cc3)cc2C1=O was tested, and the relative growth was inactive: 1.04. With Cc1noc(C)c1S(=O)(=O)Nc1ccc2c(c1)C(=O)N([C@H](C)CO)C[C@@H](C)[C@H](CN(C)C(=O)Nc1cccc3ccccc13)OCCCC[C@@H](C)O2 the relative growth was inactive: 1.01. C[C@H]1CN([C@@H](C)CO)C(=O)c2cccc(NC(=O)CCCCCC(=O)Nc3ccccc3N)c2O[C@H]1CN(C)S(C)(=O)=O was tested, and the relative growth was inactive: 0.969. With Cc1ccc(S(=O)(=O)Nc2ccc3c(c2)CC(=O)N([C@@H](C)CO)C[C@H](C)[C@@H](CN(C)S(=O)(=O)c2cccs2)O3)cc1 the relative growth was inactive: 1. Cc1cn(CCN2CCN(c3ccccc3-c3cc(C#N)cc(C(=O)NCCCN4CCCC4)c3)CC2)c2ccccc12 was tested, and the relative growth was inactive: 1.01. C=C(CC)C(=O)c1ccc(OCC(=O)O)c(Cl)c1Cl was tested, and the relative growth was inactive: 1.08. For COc1ccc(NC(=O)N(C)C[C@@H]2OCCCC[C@H](C)Oc3ccc(NC(=O)c4ccncc4)cc3C(=O)N([C@H](C)CO)C[C@@H]2C)cc1, the relative growth was inactive: 1. COc1ccc(NC(=O)N(C)C[C@H]2OCCCC[C@@H](C)Oc3ccc(NC(=O)Nc4ccc(F)cc4)cc3C(=O)N([C@@H](C)CO)C[C@H]2C)cc1 was tested, and the relative growth was inactive: 1.05. For Cc1ccc(S(=O)(=O)N(C)C[C@H]2Oc3ccc(NS(C)(=O)=O)cc3C(=O)N([C@@H](C)CO)C[C@@H]2C)cc1, the relative growth was inactive: 0.991. In the case of COc1ccc(NC(=O)Nc2ccc3c(c2)CC(=O)N([C@H](C)CO)C[C@@H](C)[C@H](CN(C)CC2CCCCC2)O3)cc1, the relative growth is reported as inactive: 0.893. With CNC(=O)C[C@H]1CC[C@@H]2[C@H](COC[C@H](O)CN2C(=O)Nc2cccc(OC)c2)O1 the relative growth was inactive: 1. For C[C@@H]1CN([C@H](C)CO)C(=O)c2cc(NC(=O)Nc3cccc4ccccc34)ccc2O[C@H]1CN(C)C(=O)Nc1ccc2c(c1)OCO2, the relative growth was inactive: 1. For C[C@H](CO)N1C[C@H](C)[C@@H](CN(C)C(=O)Nc2cccc3ccccc23)OCCCC[C@H](C)Oc2ccc(NC(=O)C3CCCCC3)cc2C1=O, the relative growth was inactive: 1. With COc1cccc(NC(=O)N2C[C@H](O)COC[C@H]3O[C@H](CC(=O)NCCCN4CCOCC4)CC[C@@H]32)c1 the relative growth was inactive: 0.987. In the case of C[C@H](CO)N1C[C@H](C)[C@H](CN(C)S(=O)(=O)c2cn(C)cn2)Oc2ccc(NC(=O)Nc3ccccc3)cc2C1=O, the relative growth is reported as inactive: 0.962. For OC[C@H]1O[C@@H](O[C@@H]2[C@@H](CO)O[C@](O)(CO)[C@H]2O)[C@H](O)[C@@H](O)[C@H]1O, the relative growth was inactive: 0.994. In the case of NNc1cccc(C(=O)O)c1, the relative growth is reported as inactive: 0.972. NC(CCC(=O)NC(CS)C(=O)NCC(=O)O)C(=O)O (stereo not given) was tested, and the relative growth was inactive: 1.06. For CCc1nc2ccc(C(=O)Nc3cccc(NS(C)(=O)=O)c3)cn2c1N(C)CCN1CCOCC1, the relative growth was inactive: 0.978. For COc1ccc(NC(=O)O[C@H]2[C@H](OC(=O)Nc3ccccc3-c3ccccc3)[C@H](OC(=O)Nc3ccccc3-c3ccccc3)[C@@H](OC)O[C@@H]2COC(=O)NCCCCCC(=O)NO)cc1, the relative growth was inactive: 0.994. With C[C@H](CO)N1C[C@H](C)[C@@H](CN(C)C(=O)Nc2ccc3c(c2)OCO3)OCCCC[C@H](C)Oc2ccc(NS(=O)(=O)c3cccs3)cc2C1=O the relative growth was inactive: 1.02. In the case of COc1ccc([C@H]2CC([C@@H]3C(=O)N[C@H]4CC[C@H](Br)C[C@@H]4[C@H]3c3ccccc3)=NN2C(=O)c2ccccc2)cc1, the relative growth is reported as inactive: 1.01. In the case of N=C(N)NCCCCNC(=N)N, the relative growth is reported as inactive: 1.01. Nc1ccc(S(=O)(=O)NC(=O)c2ccccc2)cc1 was tested, and the relative growth was inactive: 1.2. In the case of C[C@H]1CN([C@@H](C)CO)C(=O)c2cc(NS(=O)(=O)c3ccc(F)cc3)ccc2O[C@H]1CN(C)S(C)(=O)=O, the relative growth is reported as inactive: 0.987. In the case of Cc1ccc(S(=O)(=O)N(C)C[C@H]2OCCCC[C@H](C)Oc3ccc(NC(=O)NC4CCCCC4)cc3C(=O)N([C@H](C)CO)C[C@@H]2C)cc1, the relative growth is reported as inactive: 1.02. In the case of C[C@@H]1CN([C@H](C)CO)C(=O)CCCn2nncc2CO[C@H]1CN(C)Cc1ccc2c(c1)OCCN2C, the relative growth is reported as inactive: 0.988. In the case of C[C@H](CO)N1C[C@H](C)[C@@H](CN(C)C(=O)Cc2ccccc2)OCCCC[C@H](C)Oc2ccc(NC(=O)Nc3ccccc3)cc2C1=O, the relative growth is reported as inactive: 1.01. With C[C@H]1CN([C@@H](C)CO)C(=O)c2cccc(NC(=O)C3CC3)c2O[C@@H]1CN(C)Cc1ccc(-c2ccccc2)cc1 the relative growth was inactive: 1.01. In the case of CC(C)NC(=O)N(C)C[C@H]1Oc2ccc(NC(=O)CCCN(C)C)cc2C(=O)N([C@H](C)CO)C[C@@H]1C, the relative growth is reported as inactive: 1.05. For CCS(=O)(=O)NCC[C@H]1CC[C@H](NC(=O)C2CCOCC2)[C@H](CO)O1, the relative growth was inactive: 0.975. In the case of C[C@@H]1CCCCO[C@H](CN(C)C(=O)Nc2ccccc2)[C@H](C)CN([C@H](C)CO)C(=O)c2cc(NC(=O)c3ccncc3)ccc2O1, the relative growth is reported as inactive: 0.988. For COCC#Cc1cnc2c(c1)C(=O)N([C@H](C)CO)C[C@H](C)[C@@H](CN(C)C(=O)c1cnccn1)O2, the relative growth was inactive: 1.03. COc1ccc(S(=O)(=O)Nc2ccc3c(c2)C(=O)N([C@@H](C)CO)C[C@@H](C)[C@H](CN(C)Cc2ccc(C(F)(F)F)cc2)OCCCC[C@@H](C)O3)cc1 was tested, and the relative growth was inactive: 0.965. COc1cccc(S(=O)(=O)N[C@@H]2C=C[C@@H](CC(=O)NC3CCC3)O[C@@H]2CO)c1 was tested, and the relative growth was inactive: 0.981. C[C@@H]1CCCCO[C@H](CN(C)C(=O)Nc2cccc3ccccc23)[C@@H](C)CN([C@H](C)CO)C(=O)c2cc(NS(=O)(=O)c3ccccc3)ccc2O1 was tested, and the relative growth was inactive: 0.994. For C[C@H](CO)N1C[C@H](C)[C@H](CN(C)S(=O)(=O)c2ccc(F)cc2)Oc2ccc(NS(=O)(=O)c3cn(C)cn3)cc2CC1=O, the relative growth was inactive: 0.994. In the case of COC(=O)[C@H](Cc1ccccc1)N1CC2=C[C@@H](C3CC3)n3c(=O)n(C)c(=O)n3[C@H]2[C@@H]1[C@@H](O)CCn1cc(-c2ccc(C(=O)NO)cc2)nn1, the relative growth is reported as inactive: 0.985. For C[C@@H]1CN([C@H](C)CO)C(=O)c2cc(NS(=O)(=O)c3ccc(Cl)cc3)ccc2O[C@H]1CN(C)Cc1ccc(-c2ccccc2)cc1, the relative growth was inactive: 1.03. With C[C@H]1CN([C@@H](C)CO)C(=O)c2cc(NC(=O)CCN3CCOCC3)ccc2O[C@H]1CN(C)S(=O)(=O)c1ccccc1 the relative growth was inactive: 1.04. In the case of C[C@@H]1CN([C@H](C)CO)C(=O)c2cc(C#Cc3ccc(F)cc3)cnc2O[C@@H]1CN(C)CC1CCOCC1, the relative growth is reported as inactive: 1.01. With NCC[C@H]1CC[C@@H](NC(=O)C2CCCC2)[C@@H](CO)O1 the relative growth was inactive: 1. In the case of CC(C)NC(=O)N(C)C[C@@H]1Oc2cc(C#Cc3ccc(F)cc3)ccc2S(=O)(=O)N([C@@H](C)CO)C[C@@H]1C, the relative growth is reported as inactive: 0.989. For Cc1cc(-c2cc(OC(=O)c3ccccc3)ccc2Cl)cc2nnc(Nc3ccc(OCCN4CCCC4)cc3)nc12, the relative growth was inactive: 1.01. CC(C)NC(=O)N(C)C[C@@H]1Oc2c(NC(=O)Nc3ccc4c(c3)OCO4)cccc2C(=O)N([C@H](C)CO)C[C@H]1C was tested, and the relative growth was inactive: 1.03.

From the supplement of paper PMC9446081
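Note: static incubation at 37 °C against the wild-type strain, values averaged over two biological replicates.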
